Structures are written as SMILES. About 220 (0.56%) of roughly 39,000 compounds showed activity. This is one part of the list.
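Also: static incubation at 37 °C against the wild-type strain, values averaged over two biological replicates.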

The subject of the assay is Escherichia coli K-12 BW25113. In words: relative growth (OD600 normalised to plate interquartile mean) (fraction); higher = less growth inhibition, active = 0.2 or less. As to conditions: 50 µM; LB; incubation time: overnight (16-24 h).
Consider `C[C@H](CO)N1C[C@H](C)[C@@H](CN(C)Cc2ccc(Cl)c(Cl)c2)Oc2c(NC(=O)NC3CCCCC3)cccc2C1=O`, for which the relative growth is inactive: 0.918.
For `Cc1noc(C)c1S(=O)(=O)Nc1cccc2c1O[C@H](CN(C)Cc1ccc3c(c1)OCO3)[C@H](C)CN([C@H](C)CO)C2=O` the value was inactive: 1.01.
The figure for `C=CCOC(=O)[C@H]1[C@@H]2C(=O)O[C@@H](c3ccccc3)[C@@H](c3ccccc3)N2[C@@H](c2ccc(OCCOC(=O)[C@H]3C[C@H]4C(=O)N[C@@H](CCCC[N+](C)(C)C)C(=O)N4[C@H]3c3ccc(O)cc3)cc2)[C@]12C(=O)Nc1ccc(I)cc12` is inactive: 1.02; for `Nc1ncnc2c1ncn2[C@H]1O[C@@H](C(=O)N2CCN(CC(=O)Nc3cccc4c3CNC4=O)CC2)[C@H](O)[C@@H]1O` it is inactive: 0.981; for `CC(C)=CCCC(C)C1CCC2(C)C3=C(CCC12C)C1(C)CCC(O)C(C)(C)C1CC3` (configuration not stated) it is inactive: 1.07.
Regarding `CC(C)(C)CC(C)(C)c1cc(Cc2cc(C(C)(C)CC(C)(C)C)cc(-n3nc4ccccc4n3)c2O)c(O)c(-n2nc3ccccc3n2)c1`, the relative growth was inactive: 1.06.
The figure for `C[C@H]1CCCCO[C@H](CN(C)S(C)(=O)=O)[C@@H](C)CN([C@@H](C)CO)C(=O)c2cc(N(C)C)ccc2O1` is inactive: 1.01; for `C[C@H]1CN([C@@H](C)CO)S(=O)(=O)c2ccc(-c3cncnc3)cc2O[C@H]1CN(C)C(=O)Cc1cccnc1` it is inactive: 0.998.
The figure for `C[C@H]1CN([C@@H](C)CO)S(=O)(=O)c2ccc(/C=C/c3ccccc3)cc2O[C@@H]1CN(C)C(=O)CN1CCOCC1` is inactive: 1.04; for `COc1cc2nc(N(C)CCCNC(=O)C3CCCO3)nc(N)c2cc1OC.Cl` (configuration not stated) it is inactive: 1.05; for `NC(=O)c1cnccn1` it is inactive: 1.09.
For `C[C@@H]1CN([C@@H](C)CO)C(=O)CCCn2nncc2CO[C@@H]1CN(C)C(=O)Nc1cccc(C(F)(F)F)c1` the value was inactive: 0.929; for `O=S(=O)([O-])CCSSCCS(=O)(=O)[O-].[Na+].[Na+]`, inactive: 1.07.
Take `C[C@H]1CN([C@@H](C)CO)C(=O)c2cccc(NS(=O)(=O)c3ccc(F)cc3)c2O[C@@H]1CN(C)S(=O)(=O)c1cccs1`: the relative growth is inactive: 1.04.
The figure for `CC(C)(C)OC(=O)C[C@H]1CC=CC[C@H](CC(=O)N[C@@H](CO)Cc2ccccc2)C(=O)N2CCC[C@@H]2COC1=O` is inactive: 1; for `C[C@H](CO)N1C[C@H](C)[C@@H](CN(C)Cc2ccc(C(=O)O)cc2)OCCCC[C@H](C)Oc2ccc(NC(=O)c3ccccc3)cc2C1=O` it is inactive: 1.
For `C[C@@H]1CCCCO[C@@H](CN(C)S(=O)(=O)c2ccc(Cl)cc2)[C@H](C)CN([C@@H](C)CO)C(=O)c2cc(NC(=O)c3ccncc3)ccc2O1` the value was inactive: 1.05.

For the origin of these results see the supplement of paper PMC9446081.
